Hit rate of the full screen: of about 410,000 compounds, about 7,200 (1.8%) were called active. Inconclusive results, whose numbers are uncertain, are shown with a selection of clear calls. Calls come from the whole dose curve; as a rule, active = well fitted activation curve with a large enough effect; inconclusive = small, poorly fitted or top-dose-only effect, or another doubt; inactive = no such curve, though single readings can be large or run the other way. Potencies of inconclusive entries are left out as doubtful fits.
assay: qHTS of TDP-43 Inhibitors; details: TDP-43 expressing yeast growth rescue, BacTiter-Glo, 24 h; series mostly up to 46.1 µM; note: nearly all actives have a fitted effect of over 50% in size
Method in brief: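 Yeast cells expressing TDP-43 under galactose induction are exposed to compounds for 24 hr at 30 deg C. BacTiter-Glo luminescence measures growth, so protective compounds score as activators.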
Potency is the fitted concentration of half-maximal effect; tags give direction and shape of the fitted curve.

| Compound | Potency |
| --- | --- |
| CCOc1ccc(NS(=O)(=O)c2ccc3[nH]cc(C(=O)NCc4ccccc4)c(=O)c3c2)cc1 | inconclusive [activator, full curve, poor fit] |
| Cc1cccc(CNC(=O)c2ccc3c(c2)N(C)C(=O)C2CCCCN32)c1 (stereo not given) | inconclusive [activator, partial curve] |
| CCOC(=O)C1=C(C)NC2=C(C(=O)CC(C)(C)C2)C1c1cccc(C)n1 (stereo not given) | inactive |
| CCCCC(=O)OC1=C(C(=O)c2ccccc2)N(C)S(=O)(=O)c2ccccc21 | inconclusive [activator, full curve] |
| NC(=O)[C@@H]1CCOc2c(I)cc([N+](=O)[O-])cc2C(=O)N[C@@H](CO)C(=O)NCC(=O)N1 | inactive |
| Cc1nc(CSc2nnc(Nc3cccc(C)c3C)s2)cs1 | active: 7.94 µM |
| CCCCCCCCNC(C)C(O)c1ccc(SC(C)C)cc1 (stereo not given) | inconclusive [activator, partial curve] |
| COCCn1c(=O)sc2ccccc2c1=O | inconclusive [activator, partial curve] |
| COc1ccc(-c2csc3ncnc(N4CCN(c5ccccc5OC)CC4)c23)cc1 | inconclusive [activator, single point] |
| O=C(COc1cccc2c1CCN(Cc1ccccc1F)C2=O)N1CCCCC1 | inconclusive [activator, single point] |
| COc1cccc2c1Oc1ncccc1N(C(=O)Nc1cccc(Cl)c1)C2 | inactive |
| CCCOc1ccc(F)cc1-c1cc(C(=O)NC(C)C)[nH]n1 | inconclusive [activator, partial curve, poor fit] |
| Cc1ccccc1NC(=O)c1ccc(F)c(S(=O)(=O)N(C)C2CCCCC2)c1 | active: 15.8 µM |
| O=S(=O)(c1ccc(Cl)cc1)N1CCN(c2ccc(N3CCOCC3)nn2)CC1 | inactive |
| CN(CC(=O)Nc1ccccc1Cl)C(=O)COC(=O)c1ccc(Cl)cc1[N+](=O)[O-] | inconclusive [activator, single point] |
| Cc1ccccc1C1C(=O)c2ccccc2C1=O | inconclusive [activator, partial curve] |
| COc1ccc(Cn2c(=O)sc3ccccc32)cc1OC | active: 11.2 µM |
| Cc1[nH]c2ccc(C(=O)NC3CCC(C)CC3)cc2c1C (stereo not given) | inactive |
| O=c1[nH]c(=S)n2c(c1-c1ccccc1)OC(CBr)C2 (stereo not given) | inconclusive [activator, partial curve] |
| O=C(COc1ccc(Cl)cc1)NCCc1csc(-c2ccc(F)cc2)n1 | inactive |

From PubChem BioAssay AID652104 (National Center for Advancing Translational Sciences (NCATS), 2013)
